From paper PMC4336329 (PLoS ONE, 2015)
The whole screen tested about 310,000 compounds, of which about 14,000 (4.5%) showed an effect of 50% or more. Effects have a minus sign here. This is one part of the list.

Target: human ether-à-go-go-related gene (hERG) potassium channel (human, UniProt Q12809)
Experiment: primary screen, population patch clamp on CHO cells stably expressing hERG
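Note: peak tail current of the secondary pulse compared with the same well before compound.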

Sequence of human ether-à-go-go-related gene (hERG) potassium channel (Q12809 whole entry, looked up): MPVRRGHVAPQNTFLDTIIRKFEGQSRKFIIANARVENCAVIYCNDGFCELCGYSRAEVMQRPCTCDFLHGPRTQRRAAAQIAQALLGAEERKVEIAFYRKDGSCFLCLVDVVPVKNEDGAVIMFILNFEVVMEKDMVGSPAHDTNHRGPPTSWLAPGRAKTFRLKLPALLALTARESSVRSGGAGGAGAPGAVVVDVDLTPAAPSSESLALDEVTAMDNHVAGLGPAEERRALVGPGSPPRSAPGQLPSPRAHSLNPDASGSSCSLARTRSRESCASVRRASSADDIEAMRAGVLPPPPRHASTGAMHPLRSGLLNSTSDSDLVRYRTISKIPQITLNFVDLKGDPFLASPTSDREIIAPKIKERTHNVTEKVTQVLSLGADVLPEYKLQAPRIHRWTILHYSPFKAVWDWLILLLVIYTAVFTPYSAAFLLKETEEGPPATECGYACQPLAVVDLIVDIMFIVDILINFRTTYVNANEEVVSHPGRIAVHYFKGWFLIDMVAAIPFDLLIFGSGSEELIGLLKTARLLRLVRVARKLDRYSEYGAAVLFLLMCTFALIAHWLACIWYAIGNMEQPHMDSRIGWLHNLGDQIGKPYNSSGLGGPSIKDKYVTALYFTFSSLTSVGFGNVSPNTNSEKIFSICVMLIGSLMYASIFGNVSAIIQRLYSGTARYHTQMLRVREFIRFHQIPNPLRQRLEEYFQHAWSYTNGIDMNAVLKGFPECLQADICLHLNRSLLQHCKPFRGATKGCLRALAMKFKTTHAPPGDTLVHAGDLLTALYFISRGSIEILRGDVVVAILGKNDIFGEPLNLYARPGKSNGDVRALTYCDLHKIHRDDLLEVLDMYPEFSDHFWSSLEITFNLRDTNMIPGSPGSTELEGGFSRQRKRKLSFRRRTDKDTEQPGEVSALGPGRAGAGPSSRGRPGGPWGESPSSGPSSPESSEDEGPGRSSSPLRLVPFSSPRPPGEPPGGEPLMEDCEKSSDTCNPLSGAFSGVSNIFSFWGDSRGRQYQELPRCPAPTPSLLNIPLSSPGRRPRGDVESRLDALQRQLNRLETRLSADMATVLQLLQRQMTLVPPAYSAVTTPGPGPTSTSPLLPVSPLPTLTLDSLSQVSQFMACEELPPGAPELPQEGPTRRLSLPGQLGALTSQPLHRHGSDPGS

SMILES | hERG current change (%, negative = inhibition) at 10uM
CCOC(=O)/C=C/C(=O)Nc1nccs1 | 17.7%
COc1ccc(-c2cc3nc4ccccc4n3c(N)c2C#N)cc1 | 2.63%
CC(OC(=O)c1cc(=O)c2ccccc2o1)C(=O)Nc1ccc(N(C)C)cc1 (stereo not drawn) | 4.51%
c1cncc(-c2nc(NCC3CCCO3)c3ccccc3n2)c1 (stereo not drawn) | 7.02%
CCc1cc2c(=O)n(CC)c(SC(C)C(=O)Nc3c(C)n(C)n(-c4ccccc4)c3=O)nc2s1 (stereo not drawn) | -19.1%
CC1CC(C)CN(C(=O)CCNS(=O)(=O)c2cccs2)C1 (stereo not drawn) | -9.51%
CCc1cc(=O)oc2cc(C)cc(OCC(=O)NCCc3c[nH]c4ccccc34)c12 | 8.45%
CC1(C)CC(=O)C(C=NCCCO)=C(O)C1 | 5.07%
C/C(=N\NC(=O)c1ccc(N/N=C(\C)c2ccc(O)cc2)cc1)c1ccc(O)cc1.O=S(=O)(O)O | -15.8%
CCc1nnc(NC(=O)CCC(=O)NC2CCCCC2)s1 | 15.8%
CCOC(=O)c1sc(NC(=O)c2ccc(C)s2)cc1C | 5.51%
Cc1ccc(CS(=O)Cc2ccc(C(=O)NCc3ccccc3Cl)o2)cc1 (stereo not drawn) | -13.8%
CCn1c(O)c(C=Nc2ccc(N3CCOCC3)cc2)c(=O)n(CC)c1=S | -20.5%
Cc1cc(C(=O)N/N=C\C(Br)=C\c2ccccc2)c(C)o1 | 14.8%
Cn1c(CNC(=O)c2ccco2)nnc1SCC(=O)Nc1ccc(Cl)cc1 | -26.1%
COc1ccccc1-n1c(-c2ccco2)n[nH]c1=S | 15.8%
O=C(C1CCCN(Cc2ccccc2C(F)(F)F)C1)N1CCCCC1.O=C(O)C(=O)O (stereo not drawn) | -7.75%
CCOc1cc(/C=C(/C#N)c2nc3ccccc3[nH]2)ccc1OCc1ccc(C(=O)O)o1 | 3.75%
CC(C)(C)NC(=O)C(c1ccccc1F)N(Cc1ccco1)C(=O)c1csnn1 (stereo not drawn) | 0.31%
CCOC(=O)N1CCN(C(=O)CSc2nnc(Cc3ccccc3)o2)CC1 | -5.08%
Cc1nnc(NC(=O)CSc2ncnc3scc(-c4ccccc4)c23)s1 | 23.9%
CC1=C(c2ccc(Cl)cc2)[N+](=O)C(C)(C)N1[O-] | 10.9%

SMILES | hERG current change (%, negative = inhibition) at 10uM
C/C(CC1(O)C(=O)N(Cc2ccccc2)c2ccccc21)=N\O (stereo not drawn) | 8.18%
O=C(CCNS(=O)(=O)c1cccc2nsnc12)NCc1ccc(F)cc1 | -7.32%
CC(=O)Nc1ccc(Nc2ccc3c4c(cc(=O)n3C)-c3ccccc3C(=O)c24)cc1 | 9.74%
O=c1c2ccccc2nc(CNCC2CCCO2)n1-c1ccc(F)cc1 (stereo not drawn) | 3.21%
Cn1c(SCC(=O)c2ccccc2)nnc1-c1ccccn1 | -8.9%
CCn1c(=O)c2c3c(sc2n2c(=S)[nH]nc12)CCC3 | 25.6%
Cc1nnc(NC(=O)c2ccc3c(c2)C(=O)N(CCC(C)C)C3=O)s1 | 0.0544%
CC(C)(C)NC(=O)CN1CCC(NC(=O)C23CC4CC(CC(C4)C2)C3)CC1 | 28.1%
Cc1cc(S(=O)(=O)Nc2ccc3ccccc3c2)c(C)s1 | -0.508%
CCC(C)c1ccc(N(C(=O)c2ccco2)C(C(=O)NC2CCCC2)c2cccnc2)cc1 (stereo not drawn) | -15.4%
O=C(CCn1nnc(-c2cccs2)n1)N1CCc2ccccc2C1 | -20.1%
Cn1cc(C(=O)N/N=C/C2=C(N3CCOCC3)C(=C\c3ccccc3)/CC2)ccc1=O | 0.839%
Cc1cc(C)n(-c2ccc3cccc(NS(C)(=O)=O)c3n2)n1 | 26.3%
CCc1cc(N2CCOCC2)cc2c1[nH]c1ccccc12 | 6.57%
Cc1ccc(C(=O)NC(=S)Nc2ccc(CN3CCOCC3)cc2)cc1 | 2.56%
CC(=O)n1c2ccccc2c2c1c1ccccc1n2C | -1.59%
COc1cccc(CN2CC(C(=O)N3CCCO3)CCC2=O)c1 (stereo not drawn) | 3.91%
CCOC(=O)CCCNC(=O)CCNC(=O)c1ccc(OC(C)C)cc1 | 7.79%
Cc1cc(C)c(NC(=O)CN(C)C(=O)c2ccc(OCc3ccccc3)cc2)c(C)c1 | 14.1%
O=Nc1c(O)n(Cc2cccc(Cl)c2)c2ccccc12 | 2.31%
COc1ccc(CN(C(=O)c2snc(C(N)=O)c2N)C(C(=O)NC2CCCC2)c2ccc(OC)c(OC)c2)cc1 (stereo not drawn) | -4.19%
Cc1cccc(NC(=O)c2ccc3c(c2)C(=O)N(c2ccccc2C)C3=O)n1 | -10.5%

SMILES | hERG current change (%, negative = inhibition) at 10uM
COc1ccc(CCC(=O)Nc2nc3ccccc3[nH]2)cc1OC | -55.7%
Cc1ccc2oc(C(Cl)(Cl)Cl)cc(=O)c2c1 | 9.24%
CCCc1cc(=O)oc2cc(OC(=O)CN3C(=O)NC4(CCCC4)C3=O)ccc12 | -11.6%
S=C(Nc1ccc(Oc2ccccc2)cc1)N1CCN(c2ccccn2)CC1 | 9.79%
COc1ccccc1C(=O)C(O)c1ccccc1OC (stereo not drawn) | -1.94%
CCOc1cc(-c2nc(-c3ccncc3)no2)cc(OCC)c1OCC | 4.14%
CCCCNC(=O)C1CCN(C/C(C)=C/c2ccccc2)CC1.O=C(O)C(=O)O | -63%
CCN1C(=O)C(CC(=O)Nc2c(C)cccc2C)Nc2cc(S(=O)(=O)N(C)C)ccc21 (stereo not drawn) | -10.9%
Br.COc1cccc(C(=O)Cn2c(NCCO)nc3ccccc32)c1 | 1.97%
CC1(C)CC(=O)/C(=C(/O)Cc2ccccc2)C(=NCCc2ccccc2)C1 | -45.2%
Cc1ccccc1-n1c(-c2ccoc2)nc2ccccc2c1=O | 6.09%
Cc1ccc(-c2nnc(SCC(=O)Nc3ccc4c(c3)oc3ccccc34)n2C)c(Cl)c1 | 1.43%
O=C(/C=C/c1cccc(Cl)c1)Nc1ccncc1 | -17.1%
O=[N+]([O-])c1ccc(O)c(Nc2ncnc3ccccc23)c1 | 13.1%
NS(=O)(=O)c1ccc(NC(=O)c2cc(Cl)sc2Cl)cc1 | -9.92%
Clc1cccc(Cl)c1CSc1nnc(-c2sccc2-n2cccc2)o1 | 10.9%
CCc1nnc(NC(=O)CSc2nc(C)nc3c2c(=O)n(C)c(=O)n3C)s1 | 13%
O=C(CNC(=O)c1ccc(Cl)cc1Cl)Nc1ccc(F)cc1 | -4.01%
CCOC(=O)N1CCN(C(=O)c2cc(S(=O)(=O)N3CCc4ccccc43)ccc2OC)CC1 | -52.1%
O=C(NCc1ccc(Cl)cc1)C1CCC(CNc2c(N3CCCCC3)c(=O)c2=O)CC1 (stereo not drawn) | 6.29%
Cc1cc(C(=O)NCc2ccccc2F)c2ccccc2n1 | 13.2%
COc1ccccc1NC(=O)CN1C(=O)C2(OCCCO2)c2ccccc21 | 0.384%

SMILES | hERG current change (%, negative = inhibition) at 10uM
O=C(NCc1nnc2c(C(F)(F)F)cc(Cl)cn12)c1ccco1 | -6.67%
N#CC1(NC(=O)Cn2ncc(Cl)c(Cl)c2=O)CCCCC1 | 27.6%
CCOC(=O)c1sc(NC(=O)c2ccc(Cl)s2)cc1C | 3.03%
O=C(COc1ccc2c(C(F)(F)F)cc(=O)oc2c1)Nc1ccc(N2CCOCC2)cc1 | 0.738%
CCC1(c2ccccc2)NC(=O)N(CC(=O)Nc2cc(S(=O)(=O)N3CCCCCC3)ccc2OC)C1=O (stereo not drawn) | -26.6%
Cc1cc2cc(CNC(=S)NC3CCCCC3)ccc2n1C | 13.8%
COC(CNC(=O)c1c[nH]c2ccc(S(=O)(=O)N3CCOCC3)cc2c1=O)OC | 10.3%
CCN(CC)CCNC1=NCCn2c1cc1cc(OC)ccc12.Cl | -66.6%
CN(C)S(=O)(=O)Oc1ccsc1C(=O)Nc1cccc(Cl)c1Cl | -6.15%
COc1ccc(CCN2C(=O)CS/C2=N\NC(=O)c2cccs2)cc1OC | -8.13%
CC1CCCC(NC(=O)COC(=O)/C=C/c2ccc(S(=O)(=O)N3CCOCC3)cc2)C1C (stereo not drawn) | 1.54%
CCOc1ccc(C(=O)Nc2ccccc2CC)cc1[N+](=O)[O-] | -21.9%
COC(=O)c1cc(Br)c(=O)n(Cc2ccc(C(=O)O)cc2)c1 | 15.9%
COc1ccc(CNC(=O)CN(Cc2ccc(OC)cc2)C(=O)CCC(=O)Nc2ccccn2)cc1 | -64.4%
COc1ccc(OC)c(N=Cc2c(O)[nH]c3ccccc23)c1 | -4.43%
CCCN(CC(=O)NC(=O)NC1CCCCC1)CC(=O)Nc1cc(Cl)ccc1Cl | 17.3%
CCOc1cc2c(cc1OCC)C(c1ccc(OC)c(OC)c1)N(c1ccc(C(=O)O)cc1)C(=O)C2 (stereo not drawn) | 20.3%
CCn1cc(C(=O)O)c(=O)c2cnc(N3CCN(C(=S)Nc4ccccc4Cl)CC3)nc21 | -4.66%
COc1ccc(Br)cc1-c1noc(-c2ccncc2)n1 | 13.7%
CCOC(=O)c1cccc(NC(=O)CSc2nc3ccccc3c(=O)n2CC)c1 | 15.4%
CC(C)(C)CN1C(=O)C(=O)NC[C@@H]1Cc1ccc(O)cc1 | 10.8%
